# Test results published in PMC5851678, “Phosphorylation decelerates conformational dynamics in bacterial translation elongation factors” (Science Advances, 2018).
# B1: Elongation factor Ts (EF-Ts) (natural protein)
# chain: not shown
# notes: Elongation factor Ts, the GDP/GTP nucleotide exchanger specific for EF-Tu; source: produced and purified in the same way as His-tagged EF-Tu (HisTrap, SEC)
# Experiments:
# [1] = target: T1, Translation elongation factor Tu (EF-Tu), Escherichia coli, nonphosphorylated (Escherichia coli, UniProt P0CE47); experiment: ITC; EF-Ts titrated into EF-Tu or pEF-Tu_(T382) at 25°C; nucleotide-free EF-Tu; 50 mM Hepes pH 7.4, 40 mM NH4Cl, 2 mM MgCl2, 1 mM TCEP; 5-20 uM in the cell, 100-500 uM in the syringe; settings: both partners purified
# T1 construct: Elongation factor Tu, E. coli; also called nonphosphorylated EF-Tu; wild-type EF-Tu; source: His-tagged, expressed in cells grown in LB with IPTG induction, purified (HisTrap, SEC); made nucleotide-free and dialyzed before ITC
# [2] = target: T2, EF-Tu phosphorylated at T382 (pEF-Tu_(T382)), Escherichia coli (Escherichia coli, UniProt P0CE47, phosphothreonine at 382 (pT382)); experiment: as above; settings: both partners purified
# T2 construct: Same construct as m1, modified by Doc; Two of the deposited entries (5MI3, 5OPD, 5MI8, 5MI9) hold this molecule with GDP or GTP; also called phosphorylated EF-Tu
binder,measurement,setting,value
B1,Kd,[1],1.2 nM
same,Kd,[2],0.81 nM
